The results in this text go back to the supplement of paper PMC4967469.

Lines with a small IC50 respond at low doses; fits outside the tested doses are given as limits. For AUC the same curve is integrated over the 256-fold range of doses and scaled to a fraction; the more sensitive the line, the further below 1. For some assays here: A top dose marked as inferred comes from the curve model; the source does not state it. For some assays here: Where an entry number is given, a second screen of the drug exists; the two often differ.

What all share (assay): Viability of human cancer cell lines after 72 h of drug (GDSC screen)
Compound in one experiment: CC1(C)CC(=O)c2c(C(F)(F)F)nn(-c3ccc(C(N)=O)c(N[C@H]4CC[C@H](O)CC4)c3)c2C1 [SNX-2112]
To be noted: top dose 2.56 µM. As to the method:
(§1)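 Human cancer cell lines in 384-well plates, medium with 10% serum, drug for 72 h over a 256-fold dose range (nine 2-fold or five 4-fold steps up to the top dose). Adherent lines were fixed and stained with the nucleic acid dye Syto60, suspension lines read with resazurin; signal relative to control wells, capped at 0 and 100%. One two-parameter sigmoid per drug and line, fitted in a mixed model over all curves with the slope shared within a line.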

Compound in the next experiment: CC[C@]1(O)C[C@@H]2CN(CCc3c([nH]c4ccccc34)[C@@](C(=O)OC)(c3cc4c(cc3OC)N(C)[C@H]3[C@@](O)(C(=O)OC)[C@H](OC(C)=O)[C@]5(CC)C=CCN6CC[C@]43[C@@H]65)C2)C1 [Vinblastine]
The settings on record: top dose 0.1 µM; top dose inferred. As for the experimental part:
as §1

Compound in the next experiment: CN(C)C/C=C/C(=O)Nc1cc2c(Nc3ccc(F)c(Cl)c3)ncnc2cc1O[C@H]1CCOC1 [Afatinib]
As to the method:
as §1

Compound in a further experiment: CN(c1ncccc1CNc1nc(Nc2ccc3c(c2)CC(=O)N3)ncc1C(F)(F)F)S(C)(=O)=O [PF-562271]
The settings on record: top dose 2.56 µM; top dose inferred. As for the experimental part: as §1

Compound in the next experiment: O=C(NC1CC1)c1cccc(-c2ccc3c(NC(=O)C4CC4)n[nH]c3c2)c1 [XMD13-2]
The settings on record: top dose 10.24 µM; top dose inferred. As for the experimental part: as §1

[1] abbreviates: top dose 0.5 µM, screen: GDSC drug entry 1032.
[2] abbreviates: top dose 10 µM, screen: GDSC drug entry 1377, top dose inferred.

One may read the IC50 as the concentration that inhibits the measured activity by half. As to “P30-OHK (lymphoblastic leukaemia, suspension)”, the AUC with SNX-2112 was found to be 0.276; with Vinblastine, 0.549; in the experiment with Afatinib (setting [1]) it was 0.982; with Afatinib (setting [2]) it was 0.975; with PF-562271, 0.912; in the experiment with XMD13-2, 0.859. Further, the IC50 with SNX-2112 is 0.0421 µM; with Vinblastine it was 0.0083 µM; with Afatinib (setting [1]), above 0.5 µM; with Afatinib (setting [2]), above 10 µM; with PF-562271, above 2.56 µM; in the experiment with XMD13-2 it was 6.3 µM.

For P32-ISH (Burkitt lymphoma, suspension), the AUC with SNX-2112 is 0.254; with Vinblastine, 0.312; with Afatinib (setting [1]) it was 0.995; with Afatinib (setting [2]) it was 0.987; in the experiment with PF-562271 it was 0.931; with XMD13-2, 0.55. In addition, the IC50 is 0.0394 µM with SNX-2112; 0.00216 µM with Vinblastine; above 0.5 µM in the experiment with Afatinib (setting [1]); above 10 µM with Afatinib (setting [2]); 2.44 µM with PF-562271; 0.847 µM with XMD13-2.

Consider PA-1 (ovary, adherent), for which the AUC with SNX-2112 came out at 0.239; with Vinblastine, 0.505; in the experiment with Afatinib (setting [1]), 0.992; with PF-562271, 0.859; in the experiment with XMD13-2, 0.872. The IC50 is 0.035 µM in the experiment with SNX-2112; 0.00643 µM with Vinblastine; above 0.5 µM in the experiment with Afatinib (setting [1]); 1.43 µM in the experiment with PF-562271; 6.32 µM with XMD13-2.

With PA-TU-8988T (pancreas, adherent), the AUC with SNX-2112 was found to be 0.639; in the experiment with Vinblastine it was 0.651; in the experiment with Afatinib (setting [1]) it was 0.981; in the experiment with Afatinib (setting [2]), 0.943; in the experiment with PF-562271 it was 0.922; with XMD13-2, 0.965. The IC50 is 0.387 µM in the experiment with SNX-2112; 0.0165 µM in the experiment with Vinblastine; above 0.5 µM in the experiment with Afatinib (setting [1]); above 10 µM in the experiment with Afatinib (setting [2]); above 2.56 µM in the experiment with PF-562271; above 10.2 µM with XMD13-2.

Take PANC-02-03 (pancreas, adherent): the AUC was found to be 0.501 with SNX-2112; 0.556 in the experiment with Vinblastine; 0.784 with Afatinib (setting [1]); 0.849 in the experiment with Afatinib (setting [2]); 0.939 with PF-562271; 0.95 with XMD13-2. For the same cell line, the IC50 is 0.161 µM with SNX-2112; 0.00916 µM with Vinblastine; 0.26 µM with Afatinib (setting [1]); 9.88 µM in the experiment with Afatinib (setting [2]); above 2.56 µM in the experiment with PF-562271; above 10.2 µM in the experiment with XMD13-2.

As for PANC-03-27 (pancreas, adherent), the AUC with SNX-2112 was determined as 0.474; with Vinblastine it was 0.472; in the experiment with Afatinib (setting [1]), 0.929; in the experiment with Afatinib (setting [2]), 0.892; with PF-562271, 0.931; with XMD13-2, 0.947. The IC50 is 0.137 µM with SNX-2112; 0.00526 µM in the experiment with Vinblastine; above 0.5 µM with Afatinib (setting [1]); above 10 µM with Afatinib (setting [2]); above 2.56 µM in the experiment with PF-562271; above 10.2 µM with XMD13-2.

For PANC-04-03 (pancreas, adherent), the AUC with SNX-2112 amounted to 0.932; with Vinblastine, 0.798; with Afatinib (setting [1]), 0.897; with PF-562271, 0.934; in the experiment with XMD13-2, 0.962. The IC50 with SNX-2112 is above 2.56 µM; with Vinblastine, 0.0866 µM; with Afatinib (setting [1]), above 0.5 µM; in the experiment with PF-562271, above 2.56 µM; with XMD13-2, above 10.2 µM.

In the case of PANC-08-13 (pancreas, adherent), the AUC amounted to 0.673 with SNX-2112; 0.699 with Vinblastine; 0.885 in the experiment with Afatinib (setting [1]); 0.917 in the experiment with Afatinib (setting [2]); 0.889 with PF-562271; 0.959 with XMD13-2. Besides, the IC50 with SNX-2112 was 0.56 µM; with Vinblastine, 0.0269 µM; with Afatinib (setting [1]) it was above 0.5 µM; with Afatinib (setting [2]), above 10 µM; with PF-562271, above 2.56 µM; in the experiment with XMD13-2, above 10.2 µM.

Consider “PC-3 [JPC-3] (lung adenocarcinoma, adherent)”, for which the AUC with SNX-2112 amounted to 0.805; with Vinblastine, 0.862; with Afatinib (setting [1]), 0.465; in the experiment with Afatinib (setting [2]), 0.286; with PF-562271 it was 0.954; with XMD13-2 it was 0.957. The IC50 with SNX-2112 was 1.83 µM; with Vinblastine, above 0.1 µM; with Afatinib (setting [1]), 0.0243 µM; with Afatinib (setting [2]), 0.126 µM; with PF-562271, above 2.56 µM; with XMD13-2 it was above 10.2 µM.

PCI-4B (head and neck, adherent): the AUC with SNX-2112 turned out to be 0.331; with Vinblastine, 0.45; with Afatinib (setting [1]), 0.437; in the experiment with Afatinib (setting [2]) it was 0.526; with PF-562271, 0.886; with XMD13-2 it was 0.909. For the same cell line, the IC50 was 0.0556 µM in the experiment with SNX-2112; 0.0046 µM in the experiment with Vinblastine; 0.0212 µM in the experiment with Afatinib (setting [1]); 0.733 µM in the experiment with Afatinib (setting [2]); above 2.56 µM with PF-562271; above 10.2 µM with XMD13-2.

For PCI-6A (head and neck, adherent), the AUC came to 0.348 with SNX-2112; 0.321 with Vinblastine; 0.483 in the experiment with Afatinib (setting [1]); 0.667 with Afatinib (setting [2]); 0.894 in the experiment with PF-562271; 0.741 with XMD13-2. For the same cell line, the IC50 with SNX-2112 was 0.0612 µM; with Vinblastine, 0.002 µM; with Afatinib (setting [1]) it was 0.0281 µM; with Afatinib (setting [2]), 1.8 µM; with PF-562271, above 2.56 µM; with XMD13-2 it was 3.07 µM.
